Out of some 390,000 compounds screened, about 17,000 (4.4%) were called active. Inconclusive means that the source gave no clear call. Such entries were picked first, then a sample of the others. The call rests on the fitted dose curve; in most records, active means well fitted inhibition curve with a large enough effect; inconclusive means small, poorly fitted or top-dose-only effect; inactive means no such curve, though single readings can be large or run the other way. Where the call is inconclusive, the potency comes from a doubtful curve fit.
Molecular target: Lysine-specific demethylase 4A (Homo sapiens) (UniProt O75164)
UniProt O75164, sequence (O75164 whole entry, looked up, the tested form may be a part): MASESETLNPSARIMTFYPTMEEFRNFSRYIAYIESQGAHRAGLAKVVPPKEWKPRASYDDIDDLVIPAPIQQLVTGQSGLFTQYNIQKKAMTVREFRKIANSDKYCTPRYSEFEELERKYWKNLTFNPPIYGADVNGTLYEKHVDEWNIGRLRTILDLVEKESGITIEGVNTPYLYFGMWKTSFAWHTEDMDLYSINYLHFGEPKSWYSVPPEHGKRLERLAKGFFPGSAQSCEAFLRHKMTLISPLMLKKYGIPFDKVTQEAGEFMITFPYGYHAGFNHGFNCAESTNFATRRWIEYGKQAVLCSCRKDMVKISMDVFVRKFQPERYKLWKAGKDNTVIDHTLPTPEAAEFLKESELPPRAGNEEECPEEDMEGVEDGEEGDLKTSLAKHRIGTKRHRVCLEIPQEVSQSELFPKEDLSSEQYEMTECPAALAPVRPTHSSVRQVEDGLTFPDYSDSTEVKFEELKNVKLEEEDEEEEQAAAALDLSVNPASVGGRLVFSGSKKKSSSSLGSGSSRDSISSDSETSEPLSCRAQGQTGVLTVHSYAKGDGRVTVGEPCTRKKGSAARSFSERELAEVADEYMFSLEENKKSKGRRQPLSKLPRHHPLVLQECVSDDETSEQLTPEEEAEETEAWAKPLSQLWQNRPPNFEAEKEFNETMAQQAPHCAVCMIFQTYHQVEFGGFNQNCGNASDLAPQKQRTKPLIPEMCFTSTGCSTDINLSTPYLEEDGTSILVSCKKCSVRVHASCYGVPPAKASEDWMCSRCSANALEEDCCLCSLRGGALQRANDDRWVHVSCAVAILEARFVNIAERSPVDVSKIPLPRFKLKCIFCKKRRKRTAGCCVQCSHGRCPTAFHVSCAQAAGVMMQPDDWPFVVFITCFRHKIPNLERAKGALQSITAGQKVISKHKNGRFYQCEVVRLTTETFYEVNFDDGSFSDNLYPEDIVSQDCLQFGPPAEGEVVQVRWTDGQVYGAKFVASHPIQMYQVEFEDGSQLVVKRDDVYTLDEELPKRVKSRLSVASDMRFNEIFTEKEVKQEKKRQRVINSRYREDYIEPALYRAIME
Experiment: qHTS Assay for Inhibitors of JMJD2A-Tudor Domain; further: nearly all actives have a fitted effect of over 50% in size
Settings: AlphaScreen JMJD2A-Tudor / H3K4me3 peptide binding; activity change, negative = inhibition: at 114 µM (top of the series)
On the % scale 0 is the no-effect control and ±100 the full control effect; potency means the concentration at half of the fitted maximal effect; tags describe the fitted curve by direction and shape.

SMILES	Potency	activity change, negative = inhibition
COc1ccccc1NC(=O)C(=O)NCC(c1ccc2c(c1)OCO2)N1CCN(C)CC1 (stereo not given)	inactive	–
Cc1cccc(N2CCN(C(=O)c3ccc4ccccc4c3)CC2C)c1 (stereo not given)	inconclusive: 50.1 µM [inhibitor, partial curve]	–
COc1ccc(-c2nc3scc(CCNS(=O)(=O)c4ccc(C)cc4)n3n2)cc1	inactive	–
CCC(C)[C@H](NC(=O)N1CCN(C)CC1)C(=O)OC (stereo not given in full)	inactive	–
Cc1cccc(N2CCN(Cc3ccoc3)CC2)c1C	active: 11.2 µM	–
O=C(Nc1ccccc1)c1cc([N+](=O)[O-])ccc1NC1CCCCC1	inconclusive: 25.1 µM [inhibitor, partial curve]	–
Nc1nonc1-n1nnc(C(=O)N/N=C/c2ccccn2)c1-c1ccccc1	inconclusive: 89.1 µM [inhibitor, partial curve]	–
CC(C)OCCCn1c(=O)c2ccccc2n2c(-c3ccc(F)cc3)nnc12	inconclusive: 56.2 µM [inhibitor, partial curve, poor fit]	–
CC(=O)Oc1ccc(C(=O)[C@H]2[C@H]3C(=O)N(c4ccc(C)cc4)C(=O)[C@H]3[C@@H]3C=CC=NN32)cc1	inconclusive: 50.1 µM [inhibitor, partial curve]	–
COc1cccc(CNC(=O)[C@H](C)NC(=O)C2CCN(S(=O)(=O)c3ccccc3)CC2)c1	inconclusive: 39.8 µM [inhibitor, single point]	–
C/C(=N\Nc1ccc([N+](=O)[O-])cc1[N+](=O)[O-])c1ccc(-n2nncc2C(C)(C)C)cc1	inconclusive: 10 µM [inhibitor, full curve]	–
O=C(NC(=S)Nc1cccnc1)c1cccs1	inconclusive: 31.6 µM [inhibitor, single point]	–
Cc1ccc(Cn2c(C(CO)Nc3nc(-c4ccc(F)cc4)cs3)nc3ccccc32)cc1 (stereo not given)	inconclusive: 50.1 µM [inhibitor, partial curve]	–
O=S(=O)(Nc1ccc(N2CCCCC2)cc1)c1ccccc1F	inconclusive: 56.2 µM [inhibitor, partial curve]	–
CCOC(=O)C1=C(c2ccccc2)NC(=S)NC1c1ccc(Cl)cc1 (stereo not given)	inconclusive: 44.7 µM [inhibitor, partial curve]	–
O=C(O)Cc1ccc2[nH]c3ccc(CC(=O)O)cc3c2c1	inactive	–
COc1ccc(CCN2C(=O)c3[nH]nc(-c4ccccc4O)c3C2c2ccccc2)cc1 (stereo not given)	inactive	–
O=C(c1ccc(S(=O)(=O)c2cccc(Cl)c2)c([N+](=O)[O-])c1)N1CCN(c2ccccn2)CC1	–	inconclusive: -39.5% [inhibitor]
Cc1ccc(OCc2n[nH]c(=S)n2N)cc1C	inconclusive: 25.1 µM [inhibitor, single point]	–
CCOC(=O)c1c(C)sc(-c2c(-c3cccc(Cl)c3)[nH]c3c2c(=O)n(C)c(=O)n3C)c1O	inconclusive: 89.1 µM [inhibitor, partial curve, poor fit]	–
O=c1[nH]c(CNCc2cccnc2)nc2ccccc12	inactive	–
CC(=O)Nc1ccc(NC(=O)CSc2ccc(-c3ccco3)nn2)cc1	inconclusive: 39.8 µM [inhibitor, partial curve]	–
Cc1nnc(NC(=O)CCSCCC(=O)Nc2nnc(C)s2)s1	active: 50.1 µM	–
CCC(=O)Nc1ccccc1-c1nc2ccccc2n(C(CC)C(=O)Nc2cccc(Cl)c2)c1=O (stereo not given)	inactive	–

SMILES	Potency	activity change, negative = inhibition
COc1ccccc1Nc1nc(N)nc(CN2CCC(C)CC2)n1	inconclusive: 10 µM [inhibitor, partial curve]	–
Cc1ccc(C)c(S(=O)(=O)Nc2cc(SCC(=O)O)c(O)c3ccccc23)c1	active: 39.8 µM	–
CC(/C=C/c1ccc(N(C)C)cc1)=N\N=C1\NC(=O)CC(C(=O)Nc2ccccc2)S1 (stereo not given)	inconclusive: 10 µM [inhibitor, full curve]	–
O=C(NCC1CCCO1)c1c(O)c2ccccc2[nH]c1=O (stereo not given)	inconclusive: 15.8 µM [inhibitor, full curve, poor fit]	–
Cc1nc(SCc2cccc(F)c2)c2oc3ccccc3c2n1	inactive	–
COCCCNC(=O)C1Cc2cc(S(=O)(=O)N3CCCC3)ccc2N1C(C)=O (stereo not given)	inconclusive: 14.1 µM [inhibitor, partial curve, poor fit]	–
COc1ccc(CCNC(=O)C2CCCN(S(=O)(=O)c3ccc4c(c3)oc(=O)n4C)C2)cc1OC (stereo not given)	inactive	–
Cc1cccc(-n2cc[nH]c2=S)c1	active: 5.62 µM	–
CCN(CCCNC(=O)c1ccc(Sc2ccc(Cl)cc2)c(NC(C)=O)c1)c1ccccc1	inconclusive: 20 µM [inhibitor, full curve]	–
Cc1ccc(N(Cc2cc3cccc(C)c3[nH]c2=O)S(=O)(=O)c2ccccc2)c(C)c1	inconclusive: 11.2 µM [inhibitor, full curve, poor fit]	–
COc1ccc(/C=N/NC(=O)CCn2c3ccccc3c3ccccc32)cc1O	inconclusive: 35.5 µM [inhibitor, full curve]	–
CN(C)c1ccc(C(=O)N2CCN(c3cc(C(F)(F)F)nc4ccccc34)CC2)cc1	inconclusive: 39.8 µM [inhibitor, single point]	–
COc1ccc(-c2nc(CSc3nnc(C)n4c3cc3oc(C)cc34)c(C)o2)cc1OC	inactive	–
CCCCCCCCNC(=O)/C(C#N)=C/c1ccccc1[N+](=O)[O-]	inconclusive: 44.7 µM [inhibitor, partial curve]	–
Cc1ccccc1-c1cc(C(=O)NCc2ccc(OC(F)(F)F)cc2)n(CC2CC(c3cccnc3)=NO2)n1 (stereo not given)	inconclusive: 100 µM [inhibitor, partial curve]	–
COC(=O)c1c(C)oc(C)c1S(=O)(=O)NCc1ccc(Cl)cc1	inconclusive: 100 µM [inhibitor, single point]	–
Cc1ccc2cc(C)c3nnc(SCC(=O)N4CCN(C(=O)c5ccco5)CC4)n3c2c1	inactive	–
O=C(COC(=O)c1ccc(Cl)nc1)Nc1cc(S(=O)(=O)N2CCOCC2)ccc1Cl	inconclusive: 25.1 µM [inhibitor, partial curve]	–
CC(C)CCNC(=O)c1ccc2c(SCC(=O)O)c3c(nc2c1)CCCC3	inactive	–
CCCCNC(=O)C1CCN(C/C(C)=C/c2ccccc2)CC1	active: 6.31 µM	–
O=C(CN1C(=O)NC(CCc2ccccc2)C1=O)Nc1ccc(F)c(F)c1F (stereo not given)	inactive	–
CCOC(=O)c1c(NC(=O)COc2ccccc2Br)sc2c1CCCCC2	inactive	–
Cc1cc(/C=N/NC(=O)C(O)(c2ccccc2)c2ccccc2)c(C)n1-c1ccccc1	inconclusive: 28.2 µM [inhibitor, full curve]	–
COc1ccc2cc(CNc3ccc(C)cc3)c(=O)n(CC(=O)Nc3cccc(Cl)c3C)c2c1	inactive	–

SMILES	Potency	activity change, negative = inhibition
CNS(=O)(=O)c1cccc(C(=O)NCC2(N3CCCCC3)CCCCC2)c1	inactive	–
Cc1cccc2sc(NC(=O)c3cccc(S(=O)(=O)N4CCc5ccccc54)c3)nc12	inactive	–
CCOc1ccc(C2=NNC(c3cccs3)=Nc3ccc(OC)cc32)cc1OCC	inconclusive: 50.1 µM [inhibitor, partial curve]	–
COc1cccc2cc(-c3nnc(SCC(=O)Nc4nc(C)cs4)n3C)oc12	inconclusive: 63.1 µM [inhibitor, partial curve, poor fit]	–
CCn1c(-c2cc3ccccc3cc2O)n[nH]c1=S	inconclusive: 7.94 µM [inhibitor, full curve]	–
CCCCCCc1nc(C(N)=O)c2[nH]c(=O)n(-c3ccc(OCC)cc3)c2n1	inactive	–
COc1ccc(C2C(C(C)=O)=C(O)C(=O)N2c2nccs2)cc1OC (stereo not given)	inconclusive: 89.1 µM [inhibitor, partial curve]	–
O=C(Cn1ncc2c(=O)oc3ccccc3c21)N1CCN(c2ccc(Cl)cc2)CC1	inactive	–
CSc1nsc(/C=C/Nc2cccc(Cl)c2)c1C#N	inconclusive: 50.1 µM [inhibitor, partial curve]	–
CC(C)OC(=O)c1ccc2nc3ccccc3nc2c1	inconclusive: 28.2 µM [inhibitor, full curve, poor fit]	–
Cc1cccc(Oc2nc(-c3ccccn3)nc3ccccc23)c1	inactive	–
CCOc1ccccc1-c1nnc2n1N=C(c1cc(OC)cc(OC)c1)CS2	inactive	–
COc1ccccc1N1CCN(S(=O)(=O)c2cccc3nsnc23)CC1	inconclusive: 56.2 µM [inhibitor, partial curve]	–
CCOC(=O)N1CCN(C(=O)CN(c2cccc(C(F)(F)F)c2)S(=O)(=O)c2ccccc2)CC1	inactive	–
C=CCSC1=N/C(=C\c2cc(OCC)c(OC(C)=O)c([N+](=O)[O-])c2)C(=O)S1	active: 17.8 µM	–
CC(C)(C)c1ccc(C(=O)NNc2cc(N3CCOCC3)nc(N3CCOCC3)n2)cc1	inactive	–
Cc1ccc(S(=O)(=O)c2cc(Nc3ccccc3)ccc2O)cc1	inconclusive: 39.8 µM [inhibitor, partial curve]	–
CCCS(=O)(=O)c1c(S(=O)(=O)CCC)c2c(N)cccn2c1C(=O)c1ccc(F)cc1	inconclusive: 79.4 µM [inhibitor, partial curve]	–
COc1ccc(CCC(=O)NCCS(=O)(=O)N2CCN(c3ccccc3F)CC2)cc1	inactive	–
CC1Sc2ccc(C(=O)NCc3ccccn3)cc2NC1=O (stereo not given)	inconclusive: 56.2 µM [inhibitor, partial curve]	–
CN1CCN(c2ccc(NC(=O)c3ccc(Br)o3)cc2)CC1	inconclusive: 89.1 µM [inhibitor, single point]	–
Cc1ccc(C(=O)NC(C)c2ccc3c(c2)OCO3)s1 (stereo not given)	inconclusive: 14.1 µM [inhibitor, full curve]	–
